Measured values from PubChem BioAssay (NCI).
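Tested at 5 concentrations; 48 h exposure; 96-well plates; endpoints linearly interpolated, else capped at highest concentration. GI50 marks 50% less growth.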 A number of entries come with more than one value. The other results are left out here. The source may hold further records. A record mostly stands for its own series of concentrations, not given here; a value can be the end of its range.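 TGI is the concentration that stops growth completely.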

Legend:
Assay in all cases: growth of human tumour cells (NCI), 48 h
786-0 renal = test system: 786-0 renal
A549 NSCLC = test system: A549 NSCLC
ACHN renal = test system: ACHN renal
BT-549 breast = test system: BT-549 breast
CCRF-CEM leukemia = test system: CCRF-CEM leukemia
DU-145 prostate = test system: DU-145 prostate
EKVX NSCLC = test system: EKVX NSCLC
HCC-2998 colon = test system: HCC-2998 colon
HCT-116 colon = test system: HCT-116 colon
HCT-15 colon = test system: HCT-15 colon
HL-60(TB) leukemia = test system: HL-60(TB) leukemia
HOP-62 NSCLC = test system: HOP-62 NSCLC
HOP-92 NSCLC = test system: HOP-92 NSCLC
HS 578T breast = test system: HS 578T breast
HT29 colon = test system: HT29 colon
IGROV1 ovarian = test system: IGROV1 ovarian
K-562 leukemia = test system: K-562 leukemia
KM12 colon = test system: KM12 colon
LOX IMVI melanoma = test system: LOX IMVI melanoma
M14 melanoma = test system: M14 melanoma
MDA-MB-231 breast = test system: MDA-MB-231 breast
MOLT-4 leukemia = test system: MOLT-4 leukemia
NCI-H226 lung = test system: NCI-H226 lung
NCI-H23 lung = test system: NCI-H23 lung
NCI-H460 lung = test system: NCI-H460 lung
NCI-H522 lung = test system: NCI-H522 lung
OVCAR-4 ovarian = test system: OVCAR-4 ovarian
OVCAR-5 ovarian = test system: OVCAR-5 ovarian
OVCAR-8 ovarian = test system: OVCAR-8 ovarian
PC-3 prostate = test system: PC-3 prostate
SF-268 CNS = test system: SF-268 CNS
SF-295 CNS = test system: SF-295 CNS
SK-MEL-28 melanoma = test system: SK-MEL-28 melanoma
SK-MEL-5 melanoma = test system: SK-MEL-5 melanoma
SK-OV-3 ovarian = test system: SK-OV-3 ovarian
SN12C renal = test system: SN12C renal
SNB-75 CNS = test system: SNB-75 CNS
SW-620 colon = test system: SW-620 colon
TK-10 renal = test system: TK-10 renal
U251 CNS = test system: U251 CNS
UACC-257 melanoma = test system: UACC-257 melanoma
UO-31 renal = test system: UO-31 renal
A498 renal = test system: A498 renal
COLO 205 colon = test system: COLO 205 colon
NCI/ADR-RES ovarian = test system: NCI/ADR-RES ovarian
OVCAR-3 ovarian = test system: OVCAR-3 ovarian
SNB-19 CNS = test system: SNB-19 CNS
DLD-1 colon = test system: DLD-1 colon
HOP-18 NSCLC = test system: HOP-18 NSCLC
KM20L2 colon = test system: KM20L2 colon
LXFL 529 NSCLC = test system: LXFL 529 NSCLC
M19-MEL melanoma = test system: M19-MEL melanoma
MALME-3M melanoma = test system: MALME-3M melanoma
RXF 393 renal = test system: RXF 393 renal
SF-539 CNS = test system: SF-539 CNS
SNB-78 CNS = test system: SNB-78 CNS
SR leukemia = test system: SR leukemia
UACC-62 melanoma = test system: UACC-62 melanoma
XF 498 CNS = test system: XF 498 CNS

COC(=O)[C@@H](C)C[C@H](Cc1ccccc1)NC(=O)c1csc([C@@H](C[C@H](C(C)C)N(C)C(=O)[C@@H](NC(=O)[C@H]2CCCCN2C)c2ccc(F)cc2)OC(C)=O)n1
GI50 (786-0 renal): 59.8 nM, 2.5 nM, 351 nM
GI50 (A549 NSCLC): 121 nM, 2.5 nM, 468 nM
GI50 (ACHN renal): 45.1 nM, 2.5 nM, 141 nM
GI50 (BT-549 breast): 2.5 nM and 41.3 nM
GI50 (CCRF-CEM leukemia): 28.7 nM, 2.5 nM, 52.4 nM
GI50 (DU-145 prostate): 6.63 nM, 2.5 nM, 37.3 nM
TGI (DU-145 prostate): 3.57 µM and > 100 µM
GI50 (EKVX NSCLC): 39.6 nM, 2.5 nM, 627 nM
GI50 (HCC-2998 colon): 25.6 nM, 2.5 nM, 1.8 µM
GI50 (HCT-116 colon): 21.7 nM, 2.5 nM, 38.8 nM
GI50 (HCT-15 colon): 47 nM, 2.5 nM, 289 nM
TGI (HL-60(TB) leukemia): 6.88 nM and 102 nM
GI50 (HOP-62 NSCLC): 35.5 nM, 2.5 nM, 88.7 nM
GI50 (HOP-92 NSCLC): 2.36 nM and 6.84 µM
TGI (HOP-92 NSCLC): 323 nM and 63.4 µM
GI50 (HS 578T breast): 35.9 nM and 567 nM
GI50 (HT29 colon): 5.93 nM, 2.5 nM, 36.7 nM
TGI (HT29 colon): 3.07 µM and 35.5 µM
GI50 (IGROV1 ovarian): 5.6 nM, 2.5 nM, 38.7 nM
GI50 (K-562 leukemia): 3.7 nM, 2.5 nM, 28.1 nM
GI50 (KM12 colon): 6.77 nM, 2.5 nM, 63.1 nM
GI50 (LOX IMVI melanoma): 18.2 nM, 2.5 nM, 52.7 nM
GI50 (M14 melanoma): 14.4 nM, 2.5 nM, 49.3 nM
TGI (M14 melanoma): 75.4 nM, 1.35 µM, 937 nM
GI50 (MDA-MB-231 breast): 23.6 nM, 2.5 nM, 111 nM
TGI (MDA-MB-231 breast): 322 nM and 15.2 µM
GI50 (MOLT-4 leukemia): 35.1 nM, 2.5 nM, 129 nM
GI50 (NCI-H226 lung): 389 nM, 38.3 nM, 18.7 µM
TGI (NCI-H226 lung): 8.44 µM and > 100 µM
GI50 (NCI-H23 lung): 33.4 nM, 2.5 nM, 308 nM
GI50 (NCI-H460 lung): 22.5 nM, 2.5 nM, 51.6 nM
TGI (NCI-H522 lung): 167 nM and 13 µM
GI50 (OVCAR-4 ovarian): 120 nM, 546 nM, 1.74 µM
GI50 (OVCAR-5 ovarian): 101 nM, 2.5 nM, 654 nM
GI50 (OVCAR-8 ovarian): 36.8 nM, 2.5 nM, 200 nM
GI50 (PC-3 prostate): 19.4 nM, 2.5 nM, 46.1 nM
GI50 (SF-268 CNS): 22.9 nM, 2.5 nM, 182 nM
GI50 (SF-295 CNS): 23 nM, 2.5 nM, 135 nM
GI50 (SK-MEL-28 melanoma): 46.4 nM and 527 nM
TGI (SK-MEL-5 melanoma): 157 nM, 36.3 nM, 1.23 µM
GI50 (SK-OV-3 ovarian): 48 nM, 2.5 nM, 154 nM
GI50 (SN12C renal): 40.7 nM, 2.5 nM, 127 nM
GI50 (SNB-75 CNS): 12.5 nM, 2.5 nM, 37.3 nM
GI50 (SW-620 colon): 9.28 nM, 2.5 nM, 52.5 nM
GI50 (TK-10 renal): 62.9 nM and 30.3 µM
GI50 (U251 CNS): 9.47 nM, 2.5 nM, 104 nM
GI50 (UACC-257 melanoma): 262 nM and 35 µM
GI50 (UO-31 renal): 343 nM, 2.5 nM, 530 nM
TGI (UO-31 renal): 7.65 µM and > 100 µM

COc1ccc2c(c1)C(=O)c1c-2n(CCCN=[N+]=[N-])c(=O)c2cc([N+](=O)[O-])ccc12
GI50 (786-0 renal): < 1 nM and 255 nM
GI50 (A498 renal): 1.39 nM and 390 nM
TGI (A498 renal): 7.71 nM and 17.1 µM
GI50 (A549 NSCLC): < 1 nM and 1.09 µM
GI50 (BT-549 breast): 1.83 µM and 32.8 nM
GI50 (COLO 205 colon): 21.4 nM and 28.9 µM
GI50 (EKVX NSCLC): 362 nM and 19 µM
GI50 (HCT-116 colon): < 1 nM and 261 nM
GI50 (HOP-62 NSCLC): < 1 nM and 190 nM
TGI (HOP-62 NSCLC): 22.9 nM and 952 nM
GI50 (M14 melanoma): < 1 nM and 261 nM
TGI (MOLT-4 leukemia): 12 nM and 350 nM
GI50 (NCI/ADR-RES ovarian): < 1 nM and 47 nM
GI50 (OVCAR-3 ovarian): 155 nM and 15.2 µM
TGI (OVCAR-3 ovarian): 769 nM and 65.9 µM
GI50 (OVCAR-5 ovarian): < 1 nM and > 100 µM
GI50 (OVCAR-8 ovarian): < 1 nM and 1.26 µM
GI50 (PC-3 prostate): 20.9 nM and 1.11 µM
GI50 (SNB-19 CNS): < 1 nM and 1.66 µM
TGI (SNB-19 CNS): 32.4 nM and > 100 µM
GI50 (UACC-257 melanoma): 10.7 nM and 5.01 µM

C[N+]1(CCNP(=S)(NCC[N+]2(C)Cc3c(ccc4c3OCO4)C3C2c2cc4c(cc2C[C@@H]3O)OCO4)NCC[N+]2(C)Cc3c(ccc4c3OCO4)C3C2c2cc4c(cc2C[C@@H]3O)OCO4)Cc2c(ccc3c2OCO3)C2C1c1cc3c(cc1C[C@H]2O)OCO3 (stereo partly specified)
TGI (786-0 renal): < 1.91 nM and 11.3 µM
TGI (A498 renal): < 1.91 nM and 22 µM
TGI (A549 NSCLC): < 1.91 nM and 67.3 µM
TGI (ACHN renal): < 1.91 nM and 11.9 µM
TGI (COLO 205 colon): < 1.91 nM and 5.77 µM
TGI (DLD-1 colon): < 1.91 nM and 7.95 µM
TGI (EKVX NSCLC): < 1.91 nM and 96.7 µM
TGI (HCC-2998 colon): < 1.91 nM and 20.1 µM
TGI (HCT-116 colon): < 1.91 nM and 5.41 µM
TGI (HL-60(TB) leukemia): < 1.91 nM and > 383 µM
TGI (HOP-18 NSCLC): < 1.91 nM and 94.4 µM
TGI (HOP-62 NSCLC): < 1.91 nM and 39.3 µM
TGI (HOP-92 NSCLC): < 1.91 nM and 13.7 µM
TGI (HT29 colon): < 1.91 nM and 5.21 µM
TGI (IGROV1 ovarian): < 1.91 nM and 16.7 µM
TGI (K-562 leukemia): < 1.91 nM and 18.5 µM
TGI (KM12 colon): < 1.91 nM and 6.49 µM
TGI (KM20L2 colon): < 1.91 nM and 8.91 µM
TGI (LOX IMVI melanoma): < 1.91 nM and 6.81 µM
TGI (LXFL 529 NSCLC): < 1.91 nM and 7.83 µM
TGI (M19-MEL melanoma): < 1.91 nM and 7.23 µM
TGI (MALME-3M melanoma): < 1.91 nM and 10.3 µM
TGI (NCI-H23 lung): < 1.91 nM and 7.63 µM
TGI (NCI-H460 lung): < 1.91 nM and 2.61 µM
TGI (NCI-H522 lung): < 1.91 nM and 16.1 µM
TGI (OVCAR-3 ovarian): < 1.91 nM and 7.17 µM
TGI (OVCAR-4 ovarian): < 1.91 nM and 11.6 µM
TGI (RXF 393 renal): < 1.91 nM and 7.35 µM
TGI (SF-268 CNS): < 1.91 nM and > 383 µM
TGI (SF-295 CNS): < 1.91 nM and 39.9 µM
TGI (SF-539 CNS): < 1.91 nM and 8.99 µM
TGI (SK-MEL-28 melanoma): < 1.91 nM and 8.97 µM
TGI (SK-MEL-5 melanoma): < 1.91 nM and 6.58 µM
TGI (SK-OV-3 ovarian): < 1.91 nM and 26.2 µM
TGI (SN12C renal): < 1.91 nM and 10.5 µM
TGI (SNB-19 CNS): < 1.91 nM and 71.2 µM
TGI (SNB-75 CNS): < 1.91 nM and 4.12 µM
TGI (SNB-78 CNS): < 1.91 nM and 12.1 µM
TGI (SR leukemia): < 1.91 nM and 28.9 µM
TGI (SW-620 colon): < 1.91 nM and 6.16 µM
TGI (TK-10 renal): < 1.91 nM and 23.7 µM
TGI (U251 CNS): < 1.91 nM and 6.87 µM
TGI (UACC-257 melanoma): < 1.91 nM and 9.33 µM
TGI (UACC-62 melanoma): < 1.91 nM and 4.72 µM
TGI (UO-31 renal): < 1.91 nM and 14.9 µM
TGI (XF 498 CNS): < 1.91 nM and 3.57 µM
